# Reference: PubChem BioAssay AID686978 (National Center for Advancing Translational Sciences (NCATS), 2013)
# Among all 420,000 compounds or so, about 64,000 (15%) were called active. This list was built around the results that the source calls inconclusive (neither active nor inactive); the mix of calls is not that of the screen. Calls come from the whole dose curve; as a rule, active = well fitted inhibition curve with a large enough effect; inconclusive = small, poorly fitted or top-dose-only effect; inactive = flat fitted curve, though single readings scatter. Potencies of inconclusive entries are left out as doubtful fits.
# Test: qHTS for Inhibitors of human tyrosyl-DNA phosphodiesterase 1 (TDP1): qHTS in cells in absence of CPT; note: nearly all actives have a fitted effect of over 55% in size
# Conditions: DT40 Tdp1-/- hTDP1 cells, no CPT, ATP luminescence, 48 h; activity change, negative = growth inhibition: at 46.2 µM (top of the series) unless noted
# Outline: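 Luminescent ATP content (CellTiter-Glo) served as the growth readout. Knockout chicken DT40 cells expressing human TDP1 were exposed to compounds without camptothecin for a minimum 48 hr at 37 °C.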
# % is set by controls: 0 for no effect and ±100 for the full control effect; potency is the fitted concentration of half-maximal effect; tags give direction and shape of the fitted curve.
Structure (SMILES),Potency,"activity change, negative = growth inhibition"
O=C(NNS(=O)(=O)c1ccccc1)c1cnn(-c2ccccc2)c1-n1cccc1,active: 11.6 µM,–
O=c1[nH]c2ccc(NCc3ccccc3OCc3ccc(Cl)cc3)cc2[nH]1,"inconclusive [inhibitor, partial curve, poor fit]",–
COC(=O)C(C)NC(=O)C12CC3CC(C1)CC(c1ccc(C)cc1)(C3)C2 (stereo not drawn),inactive,–
CCn1c(SCC(=O)OC2CCCCC2)nc2ccccc2c1=O,"inconclusive [inhibitor, partial curve, poor fit]",–
C/C(=N\NC(N)=S)c1ccncc1,inactive,–
Cc1ccc(F)cc1NC(=O)CN1C(=O)NC2(CCCc3ccccc32)C1=O (stereo not drawn),inactive,–
Cc1ccc(-n2ncc3c(N4CCC(C(N)=O)CC4)ncnc32)c(C)c1,inactive,–
Cc1cccc(NC(=O)CC2SC(=NC3CCCCC3)NC2=O)c1 (stereo not drawn),"inconclusive [inhibitor, single point]",–
O=C(c1cccs1)N1CCN(c2nc3c(F)cc(F)cc3s2)CC1,"inconclusive [inhibitor, single point]",–
Cc1ccc(S(=O)(=O)N2CCCN(Cc3nc4ccccc4c(=O)[nH]3)CC2)cc1,"inconclusive [inhibitor, single point]",–
O=C(CCc1nnc(-c2ccc3c(c2)OCO3)o1)NC(c1cccnc1)C(F)(F)F (stereo not drawn),"inconclusive [inhibitor, single point]",–
OC[C@H]1O[C@@H](c2nc(-c3ccccc3Br)no2)[C@H](O)[C@@H](O)[C@H]1O,inactive,–
CCc1c(C)sc(NC(=O)OC)c1C(=O)N1CCOCC1,inactive,–
COc1ccc(S(=O)(=O)c2c(Nc3ccc(F)cc3)sc(C(=O)c3ccc4c(c3)OCO4)c2N)cc1,inactive,–
CC(=O)N/C(=C\c1ccccc1)C(=O)OCC(=O)c1c(N)n(C)c(=O)n(C)c1=O,inactive,–
COc1cccc2cc(C(=O)NCc3ccc(Cl)cc3)c(=O)oc12,–,inconclusive: -6.94% [inhibitor]
CCN1CCN(C(c2ccccc2)c2sc3nc(-c4ccco4)nn3c2O)CC1 (stereo not drawn),inactive,–
COc1ccc(F)cc1-c1cc(C(=O)NCc2ccccc2)[nH]n1,"inconclusive [inhibitor, single point]",–
CCCn1c(C(O)c2cc(OC)c(OC)c(OC)c2)nc2ccccc21 (stereo not drawn),active: 20.6 µM,–
COc1ccc2cc(C(=O)C3CCCN(C(=O)c4cc(=O)n(C)c(=O)n4C)C3)ccc2c1 (stereo not drawn),"inconclusive [inhibitor, single point]",–
Cn1cccc1/C=C(/C#N)C(N)=S,inactive,–
O=C(O)/C=C/C(=O)Nc1ccccc1SC(F)(F)F,active: 20.6 µM,–
CCc1nc2ccc(C(=O)N3CCN(S(=O)(=O)CC)CC3)cn2c1N(CC)CCN(C)C,inactive,–
O=C(CSc1nc2ccccc2[nH]1)Nc1ccc(N2CCOCC2)cc1,active: 11.6 µM,–

Structure (SMILES),Potency,"activity change, negative = growth inhibition"
CCc1ccc(NC(=O)C2CCN(C(=O)N3CCOc4ccccc43)CC2)cc1,"inconclusive [inhibitor, single point]",–
O=C(Nc1ccc(F)cc1F)N1CCCN(c2ccc([N+](=O)[O-])cn2)CC1,inactive,–
CC(C)C(=O)NC(=S)Nc1ccccn1,inactive,–
COc1ccccc1C(=O)n1nc(-c2ccco2)nc1NCc1ccc(Cl)cc1,"inconclusive [inhibitor, partial curve]",–
COc1ccc(/C=C2\SC(=S)N(C(Cc3ccccc3)C(=O)O)C2=O)cc1 (stereo not drawn),inactive,–
Cc1ccccc1NC(=O)c1ccc(C)c(S(=O)(=O)N2CCN(C)CC2)c1,inactive,–
O=C(c1cccnc1)C1CCCN(Cc2nc(Cc3ccccc3)no2)C1 (stereo not drawn),inactive,–
COc1ccc(N2CCN(C(=O)c3ccc4c(c3)N(Cc3ccc(F)cc3)C(=O)c3ccccc3S4=O)CC2)cc1 (stereo not drawn),"inconclusive [inhibitor, single point]",–
CN(c1ccccc1)S(=O)(=O)c1cccc(NC(=O)CN2CCCc3ccccc32)c1,active: 18.4 µM,–
CNC(=S)Nc1sc2c(c1C(=O)OC)CCC2,"inconclusive [inhibitor, single point]",–
C[C@@H]1CCCCO[C@H](CN(C)Cc2ccc3c(c2)OCO3)[C@H](C)CN([C@@H](C)CO)C(=O)c2cc(NC(=O)c3ccccc3)ccc2O1,active: 20.6 µM,–
CN(Cc1ccccc1)c1cc2c(c3c1ccn3C)C1CCC2C1 (stereo not drawn),"inconclusive [inhibitor, single point]",–
Cc1nc2ccccc2c(=O)n1NC(=O)c1ccc(C(C)(C)C)cc1,"inconclusive [inhibitor, single point]",–
COc1ccccc1NC(=O)c1c(NCc2ccc(C)o2)sc2c1CCC(C)C2 (stereo not drawn),"inconclusive [inhibitor, single point]",–
CN(C(=O)c1cccc(NC(=O)Cc2ccc(NC(=O)C3CCN(S(=O)(=O)c4cccc([N+](=O)[O-])c4)CC3)cc2)c1)C1CC1,"inconclusive [inhibitor, single point]",–
CS(=O)(=O)NCCSc1cc(C(F)(F)F)nc2ccccc12,"inconclusive [inhibitor, single point]",–
OCCC1CN(Cc2ccccc2-c2ccco2)CCN1Cc1ccsc1 (stereo not drawn),inactive,–
CCOC(=O)c1cnc(-n2nc(C)cc2C)nc1Oc1ccc(C(=O)OC)cc1,inactive,–
CCOC(=O)/C(N=Nc1sc(C(=O)OC)c(C)c1C(=O)OCC)=C(\O)CCl,active: 14.6 µM,–
O=C(COC(=O)c1cnccn1)c1cccc([N+](=O)[O-])c1,inactive,–
Cc1ccc2c(Cl)cc(Cl)c(OCC(=O)N3CCCC3)c2n1,inactive,–
Cc1c(CNCCc2ccc(Cl)cc2)c(C(=O)O)c(C)n1Cc1ccccc1,"inconclusive [inhibitor, partial curve]",–
COc1ccc(Oc2c(C(F)(F)F)oc3cc(OCC(=O)O)ccc3c2=O)cc1,inactive,–
COc1ccc(NC2=Nc3ccccc3N[C@@]23C[C@H]2CCCC(=O)N4CC[C@@H](C3)[C@@H]24)cc1,"inconclusive [inhibitor, single point]",–
